The campaign covered roughly 270,000 compounds. About 5,800 (2.1%) were called active. Inconclusive means that the source gave no clear call. Such entries were picked first, then a sample of the others. Calls come from the whole dose curve; as a rule, active = well fitted inhibition curve with a large enough effect; inconclusive = small, poorly fitted or top-dose-only effect; inactive = flat fitted curve, though single readings scatter. Potencies of inconclusive entries are doubtful fits and often do not repeat.
Target: Microtubule-associated protein tau (Homo sapiens) (UniProt P10636)
Sequence of UniProt P10636 (P10636 whole entry, looked up): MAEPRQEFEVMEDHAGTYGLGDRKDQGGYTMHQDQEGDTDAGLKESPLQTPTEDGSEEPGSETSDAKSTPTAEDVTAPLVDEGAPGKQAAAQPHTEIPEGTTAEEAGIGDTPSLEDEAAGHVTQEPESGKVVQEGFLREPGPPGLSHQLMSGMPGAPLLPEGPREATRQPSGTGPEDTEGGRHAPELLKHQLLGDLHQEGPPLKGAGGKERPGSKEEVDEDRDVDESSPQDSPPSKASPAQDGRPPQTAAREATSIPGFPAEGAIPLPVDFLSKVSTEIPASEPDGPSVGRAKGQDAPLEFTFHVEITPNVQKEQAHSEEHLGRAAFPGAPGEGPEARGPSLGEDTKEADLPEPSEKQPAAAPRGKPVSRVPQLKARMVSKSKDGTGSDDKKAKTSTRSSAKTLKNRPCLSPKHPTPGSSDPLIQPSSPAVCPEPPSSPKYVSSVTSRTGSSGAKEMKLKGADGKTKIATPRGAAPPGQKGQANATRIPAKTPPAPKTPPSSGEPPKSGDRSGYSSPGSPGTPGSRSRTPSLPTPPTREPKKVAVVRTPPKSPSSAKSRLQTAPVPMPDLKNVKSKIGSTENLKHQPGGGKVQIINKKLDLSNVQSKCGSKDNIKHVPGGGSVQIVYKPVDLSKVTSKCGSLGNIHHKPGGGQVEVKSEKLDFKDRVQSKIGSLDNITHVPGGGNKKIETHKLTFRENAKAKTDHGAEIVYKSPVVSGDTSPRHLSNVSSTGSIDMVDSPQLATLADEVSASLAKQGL
Assay: qHTS for Inhibitors of Tau Fibril Formation, Thioflavin T Binding; note: nearly all actives have a fitted effect of over 55% in size
Conditions: recombinant tau K18 P301L, heparin-induced fibrillization, ThT fluorescence; series mostly up to 57.4 µM
Summary of the method: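 ThT emission at 510 nm, taken 1 hr after adding 30 uM dye, quantifies aggregates formed when 20 uM heparin acts on human tau K18 P301L for 6 hr at 37 C.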
Potency is the fitted concentration of half-maximal effect; tags give direction and shape of the fitted curve.

| SMILES | Potency |
| --- | --- |
| COc1ccc(N=Cc2c(O)c3ccccc3n2C(C)=O)cc1 | active: 15.8 µM |
| Nc1nc(SCC(=O)NCc2ccccc2)[nH]c(=O)c1NC(=O)c1ccccc1F | inactive |
| O=C1CC(SCc2nc3ccccc3[nH]2)C(=O)N1c1cccc(Cl)c1 (stereo not drawn) | inconclusive: 20 µM [inhibitor, partial curve] |
| O=C(/C=C/c1ccccc1)C1=C(O)C(=O)N(CCO)C1c1ccccc1[N+](=O)[O-] (stereo not drawn) | inconclusive: 3.55 µM [inhibitor, full curve] |
| Oc1cccc(NC(=S)N=Nc2c(O)[nH]c3ccc(Br)cc23)c1 | active: 6.31 µM |
| O=c1c2c3c(sc2ncn1/N=C/c1ccccc1)CCCC3 | inconclusive: 12.6 µM [inhibitor, partial curve] |
| O=C(COc1ccc2ccccc2c1)Nc1cccc2cccnc12 | inconclusive: 17.8 µM [inhibitor, partial curve] |
| COc1ccc(-c2nn(-c3ccccc3)cc2/C=N/N2C(=O)CSC2=S)cc1 | inconclusive: 35.5 µM [inhibitor, partial curve] |
| O=C(CCc1nc2ccccc2[nH]c1=O)OCC(=O)N1CCc2ccccc21 | inconclusive: 4.47 µM [inhibitor, full curve] |
| CCN(CC)S(=O)(=O)c1ccc2oc(SCC(=O)NCc3ccccc3)nc2c1 | inconclusive: 39.8 µM [inhibitor, partial curve, poor fit] |
| O=C(NCCC1=CCCCC1)C(=O)NCC(c1ccco1)N1CCN(c2ccccc2)CC1 (stereo not drawn) | inconclusive: 8.91 µM [inhibitor, single point] |
| CCOC(=O)c1ccccc1NC(=O)CCc1nc(-c2ccc(C)cc2)no1 | inconclusive: 31.6 µM [inhibitor, single point] |
| Cc1occc1C(=O)n1nnc2ccccc21 | inconclusive: 17.8 µM [inhibitor, partial curve] |
| CC(C)COc1ccc(C(=O)Nc2ccc([N+](=O)[O-])cc2)cc1 | inconclusive: 1.78 µM [inhibitor, full curve] |
| CN(/C=C1/C(=O)CNC1=O)CCO | inconclusive: 39.8 µM [inhibitor, single point] |
| CCCCOc1ccccc1NC(=O)c1scc2c1OCCO2 | inconclusive: 31.6 µM [inhibitor, single point] |
| COc1ccc(N2CCN(c3csc4ccccc4c3=O)CC2)cc1 | active: 11.2 µM |
| CCCCOc1ccc(Cn2c(=O)sc3ccccc32)cc1 | inactive |
| CCOC(=O)c1c(NC(=O)C(=O)N/N=C/c2ccc(O)c(OC)c2)sc2c1CCCCC2 | inconclusive: 14.1 µM [inhibitor, partial curve] |
| O=C1c2ccccc2-c2onc3c(NCCO)cc(NC4CCCCC4)c1c23 | active: 7.94 µM |
| Fc1ccc(CNC(=S)NCc2ccc(F)cc2)cc1 | inactive |
| Cc1c(C(=O)Nc2ccc(F)cc2F)sc2nc3n(c(=O)c12)N=C(c1ccccc1)CS3 | inactive |
| CC(Sc1oc(-c2cccs2)nc1S(=O)(=O)c1ccccc1)c1ccccc1 (stereo not drawn) | inconclusive: 14.1 µM [inhibitor, partial curve, poor fit] |
| CCOc1ccc(N=Nc2c(=O)[nH]n3c(C)cc(C)nc23)cc1 | active: 12.6 µM |
| CCOC(=O)c1ccccc1NS(=O)(=O)c1ccc(S(=O)(=O)N2CCCC2)cc1 | inactive |

| SMILES | Potency |
| --- | --- |
| CC1CCCC(C)N1/N=C/c1ccc(N(C)C)cc1 (stereo not drawn) | inactive |
| O=C(Nc1ccc2nc(SCCOc3ccccc3)sc2c1)c1ccc2c(c1)OCO2 | inconclusive: 0.631 µM [inhibitor, full curve] |
| Clc1ccccc1Nc1ncnc2c1nc1n2CCCCC1 | inactive |
| Cc1cccc(NS(=O)(=O)c2ccc3nc(-c4ccccc4)[nH]c3c2)c1C | inactive |
| CCOCCCNc1nc2cc(OC)c(OC)cc2c2nc(-c3ccccc3)nn12 | inconclusive: 10 µM [inhibitor, partial curve] |
| COc1ccc(C2C(C(=O)Nc3ccccc3)=C(C)Nc3nc(-c4ccccc4Cl)nn32)cc1OC (stereo not drawn) | inactive |
| CN1CCSc2ccc(C(=O)NCc3ccccc3)cc21 | inactive |
| O=C(Nc1ccc(N2CCOCC2)c(Cl)c1)c1cccnc1Cl | inactive |
| OC[C@@H]1[C@@H](c2ccccc2)C(c2ccc(F)cc2)=NN1c1ccccc1 | inconclusive: 11.2 µM [inhibitor, partial curve] |
| COc1cccc(NC(=O)Nc2ccc3c(c2)N(C)C(=O)CS3)c1 | inconclusive: 15.8 µM [inhibitor, partial curve] |
| CCCOc1cccc(C2c3c(oc4ccc(F)cc4c3=O)C(=O)N2Cc2ccc3c(c2)OCO3)c1 (stereo not drawn) | inactive |
| OC(COc1cccc2ccccc12)CN1CCN(c2cccc(Cl)c2)CC1 (stereo not drawn) | inconclusive: 7.94 µM [inhibitor, partial curve] |
| c1ccc(OCCOc2cccc3cccnc23)cc1 | inconclusive: 39.8 µM [inhibitor, single point] |
| Cc1ccc(NC(=O)N/C=C/c2ccco2)cc1 | inconclusive: 14.1 µM [inhibitor, partial curve] |
| CN1CCN(c2ccc(NC(=O)COc3ccc(Cl)cc3Cl)cc2)CC1 | inconclusive: 20 µM [inhibitor, partial curve] |
| CN(C)c1ccc(/C=N\Nc2nc(-c3ccccc3)cc(=O)[nH]2)cc1 | inconclusive: 1.26 µM [inhibitor, full curve] |
| O=C(Nc1cccc(Br)c1)c1cc(-c2ccc3c(c2)OCCO3)on1 | inconclusive: 0.562 µM [inhibitor, full curve] |
| FC(F)(F)c1ccc(Cl)c(-n2c(Cc3cccs3)n[nH]c2=S)c1 | inconclusive: 12.6 µM [inhibitor, partial curve, poor fit] |
| COc1ccc(C)cc1NC(=O)C(=O)NCc1ccncc1 | inactive |
| COc1ccc(CCN2C(=O)c3ccccc3C2(O)c2ncc[nH]2)cc1OC (stereo not drawn) | inactive |
| CCOC(=O)Cc1ccc(NC(=O)N2CC(C)Oc3ccc(Cl)cc32)cc1 (stereo not drawn) | inactive |
| Cc1nc2cc(-c3ccccc3)nn2c(C)c1CCC(=O)NCc1cccc(Cl)c1 | inactive |
| c1ccc(Cc2nnc3sc(C4COc5ccccc5O4)nn23)cc1 (stereo not drawn) | inconclusive: 39.8 µM [inhibitor, single point] |
| O=c1c2cc(NC(=S)NCCN3CCCCCC3)ccc2nc2n1CCCCC2 | inactive |
| O=C1COc2ccc(C(=O)COC(=O)c3cnc(Cl)c(Cl)c3)cc2N1 | inconclusive: 5.01 µM [inhibitor, partial curve] |

| SMILES | Potency |
| --- | --- |
| COc1cc2[nH]c(=O)n(CCCCCC(=O)N3CCN(c4ccc(Cl)cc4)CC3)c(=O)c2cc1OC | inconclusive: 0.501 µM [inhibitor, full curve] |
| CCCc1nn(C)c(C(=O)Nc2ccc3ccccc3c2)c1Cl | inconclusive: 3.55 µM [inhibitor, partial curve] |
| N#Cc1cc2[nH]c3ccccc3c2[n+](-c2ccc([N+](=O)[O-])cc2)c1N | inactive |
| CCOc1ccc(N2CC(O)(c3ccc(F)cc3)[N+]3=C2CCCC3)cc1 (stereo not drawn) | inconclusive: 14.1 µM [inhibitor, single point] |
| CCN(CC)c1ccc(NC(=O)COC(=O)CCC(=O)c2ccc(F)cc2)cc1 | inconclusive: 15.8 µM [inhibitor, partial curve] |
| O=C(CCC1N=C2c3ccccc3N=C(SCc3ccc(F)cc3)N2C1=O)NCc1ccco1 (stereo not drawn) | inconclusive: 14.1 µM [inhibitor, partial curve, poor fit] |
| Fc1ccc2nc3[nH]c4ccccc4c3nc2c1 | inconclusive: 17.8 µM [inhibitor, partial curve] |
| COc1ccc(C(=O)CN2CC(C)SC2=Nc2ccc(Cl)cc2)cc1 (stereo not drawn) | inconclusive: 15.8 µM [inhibitor, partial curve] |
| Oc1ccc2ccccc2c1/C=N/c1nc2c(s1)CCCC2 | active: 31.6 µM |
| COc1ccc(N2CCN(CC(=O)Nc3ccccc3SC)CC2)cc1 | inconclusive: 20 µM [inhibitor, single point] |
| CC(C)n1nc(C(=O)N2CCN(S(=O)(=O)c3cccs3)CC2)c2ccccc2c1=O | inactive |
| O=C(CSc1nnc([C@@H]2CCCN2)o1)c1ccc(Cl)cc1 | inconclusive: 25.1 µM [inhibitor, single point] |
| COc1ccc(C(=O)c2sc(Nc3cc(Cl)ccc3C)nc2N)cc1OC | inconclusive: 12.6 µM [inhibitor, partial curve, poor fit] |
| COC(=O)c1cc2occc2n1Cc1nc(-c2cccc(Br)c2)oc1C | inactive |
| CCOC(=O)c1c(NC(=O)c2cccs2)sc(C)c1C | inactive |
| Cc1cc(C)c(NC(=O)Cn2c(=O)n(-c3ccc(F)cc3)c(=O)c3c(C)c(C(=O)N(C)C)sc32)c(C)c1 | inactive |
| Oc1ccc2oc3c(c2c1C=NCc1ccncc1)CCCC3 | active: 15.8 µM |
| Cc1ccc2c(c1)NC(=O)CC(c1ccccc1)=N2 | inactive |
| CCn1c2ccccc2c2cc(NC(=O)COc3ccc(OC)cc3)ccc21 | inconclusive: 3.16 µM [inhibitor, full curve] |
| COc1ccc(Oc2nc3c(C)cccn3c(=O)c2/C=C(\C#N)c2nc3ccccc3[nH]2)cc1 | inconclusive: 39.8 µM [inhibitor, single point] |
| CCn1c(SCC(=O)N2CCCC2)nnc1-c1ccc(N)cc1 | inactive |
| O=C(N/N=C\C=C\c1ccc2c(c1)OCO2)C1COc2cc3ccccc3cc2O1 (stereo not drawn) | inconclusive: 2.24 µM [inhibitor, full curve] |
| CSc1ccc(CCNc2ncnc3onc(-c4ccc(Cl)cc4)c23)cc1 | inactive |

Source: PubChem BioAssay AID1460 (National Center for Advancing Translational Sciences (NCATS), 2008)
